Assay results: PubChem BioAssay AID504832 (National Center for Advancing Translational Sciences (NCATS), 2011)
About 18,000 (5.8%) of roughly 310,000 compounds were called active. Inconclusive means that the source gave no clear call. Such entries were picked first, then a sample of the others. Calls come from the whole dose curve; as a rule, active = well fitted inhibition curve with a large enough effect; inconclusive = small, poorly fitted or top-dose-only effect, or another doubt; inactive = no such curve, though single readings can be large or run the other way. No potency is given beside an inconclusive call; the fits are too rough.

Experiment: Primary qHTS for delayed death inhibitors of the malarial parasite plastid, 48 hour incubation
Details: P. falciparum luciferase growth in erythrocytes; series mostly up to 28.7 µM
In short: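 Luciferase-expressing parasites in RBCs, 2% Hct / 0.1% parasitemia final; RPMI 1640 + 0.5% Albumax; 37 C, 5% CO2, one generation; luminescence read-out, lower signal = inhibition.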
Potency is the fitted concentration of half-maximal effect; tags give direction and shape of the fitted curve.

| Structure (SMILES) | Potency |
| --- | --- |
| CC(C)(C)C(=O)CSc1ncccn1 | inconclusive [inhibitor, single point] |
| CC1(/[N+]([O-])=C\c2ccccc2F)CCCCC1=O (centres undefined) | inactive |
| COCCN1CCn2c(nc3cc(Nc4nnc(C)c5ccccc45)ccc32)C1 | inconclusive [inhibitor, single point] |
| COc1ccc(N2CCN(C(=O)CSc3nnc4n3C(C)(C)Cc3ccccc3-4)CC2)cc1 | active: 11.7 µM |
| CCNc1nc2[nH]c(=O)c3c(c2s1)OC(N)=C(C#N)C3c1ccc(C)cc1 (centres undefined) | inconclusive [inhibitor, single point] |
| COc1ccccc1C(=O)Nc1ccc2c(c1)nc(CCNC(=O)c1ccccc1)n2C | inconclusive [inhibitor, partial curve] |
| O=C(CNc1ccc(F)cc1Cl)Nc1cccc(S(=O)(=O)N2CCCCC2)c1 | inconclusive [inhibitor, partial curve, poor fit] |
| CN(c1ccccc1)c1ccc(/C=C/[N+](=O)[O-])cc1 | inconclusive [inhibitor, single point] |
| Cc1cccc(N2C(=O)N3[C@@H]4c5ccccc5OC[C@@H]4[C@@H](c4ccccc4)[C@]3(C)C2=O)c1 | inconclusive [inhibitor, single point] |
| COc1ccc(CC(=O)NC2CC2)cc1OC | inactive |
| Cc1nc2ccccc2nc1CSc1nncs1 | inconclusive [inhibitor, partial curve] |
| COc1cc(CN2CCC(C(=O)N3CCN(c4ccccc4F)CC3)CC2)cc(OC)c1O | inconclusive [inhibitor, partial curve, poor fit] |
| COc1ccc(COC(=O)CN2C(=O)NC3(CCCC3)C2=O)cc1F | inconclusive [inhibitor, partial curve, poor fit] |
| CC(C)CN(C(=O)CCNC(=O)c1ccc(Cl)cc1)c1c(N)n(CC(C)C)c(=O)[nH]c1=O | inconclusive [inhibitor, single point] |
| NC(=S)NNC(=S)Nc1ccccc1 | inactive |
| O=C(Nc1nc2cc3c(cc2s1)OCCO3)c1ccc([N+](=O)[O-])o1 | inactive |
| CC[C@H](C)[C@H]1O[C@]2(CC[C@@H]1C)C[C@@H]1C[C@@H](C/C=C(\C)[C@H](O[C@@H]3C[C@H](OC)[C@H](O[C@@H]4C[C@H](OC)[C@@H](O)[C@H](C)O4)[C@H](C)O3)[C@@H](C)/C=C/C=C3\CO[C@@H]4[C@H](O)C(C)=C[C@@H](C(=O)O1)[C@]34O)O2 | active: 1.2 µM |
| O=S(=O)(NCCOc1cccc2cccnc12)c1ccc(F)cc1 | inconclusive [inhibitor, partial curve] |
| CN1c2ccccc2C(C)(C)C12C=Cc1cc(O)ccc1O2 (centres undefined) | inconclusive [inhibitor, partial curve, poor fit] |
| Cc1cc(C(=O)COc2cc(F)ccc2[N+](=O)[O-])c(C)n1C1CC1 | inactive |
| CN(CC(=O)Nc1cccc(F)c1)C(=O)c1ccc(C2SCCS2)cc1 | inconclusive [inhibitor, single point] |
| Cc1cc(NCc2ccccc2)nc2ccccc12 | inconclusive [inhibitor, single point] |
| CC(=O)N1CCN(C(=O)c2cccc(S(=O)(=O)Nc3ccc(C)cc3)c2)CC1 | inactive |

| Structure (SMILES) | Potency |
| --- | --- |
| N#C/C(C(=O)c1ccccc1)=C1/SC=C(N)N1c1ccccc1 | inconclusive [inhibitor, single point] |
| CC(OC(=O)C1CCN(S(=O)(=O)c2ccc3c(c2)OCCO3)CC1)C(=O)N(C)c1ccccc1 (centres undefined) | inconclusive [inhibitor, single point] |
| CCCN1CCC(=O)N([C@H](CSc2ccc(OC)cc2)CC(C)C)CC1 | inconclusive [inhibitor, single point] |
| C/C(CC(=O)Nc1ccc(N(C)C)cc1)=N\NC(=O)Cc1csc(N)n1 | inconclusive [inhibitor, partial curve, poor fit] |
| CCOc1ccccc1C(=O)NC(C(=O)N(C)Cc1ccc2c(c1)OCO2)C(C)C (centres undefined) | inconclusive [inhibitor, single point] |
| O=C(Nc1ncccc1O)c1cc2ccccc2o1 | inconclusive [inhibitor, single point] |
| CCOC(=O)C(C)N(c1ccccc1Cl)S(C)(=O)=O (centres undefined) | inconclusive [inhibitor, single point] |
| O=C(CN(C(=O)c1csnn1)c1ccc(F)c(Cl)c1)NC1CCCCC1 | inactive |
| O=C(CCCN1C(=O)S/C(=C\C=C\c2ccccc2)C1=O)Nc1ccc(C(=O)O)cc1 | inactive |
| O=C(CCCOc1ccccc1)NCCc1nc2ccccc2[nH]1 | inactive |
| COc1ccc(NS(=O)(=O)c2ccc(NC(=O)c3ccccn3)cc2)cc1 | inconclusive [inhibitor, single point] |
| CCCCCCCCC/C(=N\O)c1ccccn1 | inconclusive [inhibitor, single point] |
| CC1=C(C(=O)N2CCOCC2)C(c2cccc3ccccc23)NC(=S)N1 (centres undefined) | inconclusive [inhibitor, partial curve] |
| Fc1ccc(N=C2NN=C(c3cc(F)ccc3F)CS2)cc1 | inactive |
| C=C(C)Cn1c(SCC(=O)NCc2ccco2)nc2sc3c(c2c1=O)CCC3 | inconclusive [inhibitor, partial curve] |
| COc1ccc(-n2nc(C(=O)NCC(=O)Nc3cccc(Cl)c3)c3ccccc3c2=O)cc1 | active: 9.28 µM |
| O=C(CN1CCN(S(=O)(=O)c2ccccc2)CC1)Nc1ccc(Cl)c([N+](=O)[O-])c1 | inconclusive [inhibitor, partial curve, poor fit] |
| CCOC(=O)C1CCCN(C(=O)COc2ccc(N(C)S(=O)(=O)c3ccc(F)cc3)cc2)C1 (centres undefined) | inconclusive [inhibitor, single point] |
| O=C(NCCCNc1ccc([N+](=O)[O-])cc1)C(F)(F)F | inactive |
| CCCCP(=O)(O)c1ccccc1 | inactive |
| CCn1c(SCC(=O)NC2CC2)nnc1-c1ccccc1OC | inactive |
| COc1cc(=O)[nH]c(SC(C)C(=O)Nc2ccc3ccccc3c2)n1 (centres undefined) | inactive |
| Cc1ccc(-n2c(SCC(=O)OC(C)C)nnc2-c2ccncc2)cc1 | inconclusive [inhibitor, single point] |

| Structure (SMILES) | Potency |
| --- | --- |
| Cc1ccc(C)c(C(=O)CSc2nnc(C)s2)c1 | inactive |
| Cc1ccc(SCC(=O)NCc2ccco2)cc1 | inconclusive [inhibitor, partial curve, poor fit] |
| NNc1nc(-c2ccccc2)c2ccccc2n1 | inconclusive [inhibitor, single point] |
| CC(OC(=O)COc1ccccc1Cc1ccccc1)C(=O)N(C)c1ccccc1 (centres undefined) | inconclusive [inhibitor, single point] |
| CCCOc1ccc(C2c3c(oc4ccccc4c3=O)C(=O)N2CCCN2CCOCC2)cc1 (centres undefined) | inconclusive [inhibitor, single point] |
| COc1ccc(CCC(=O)NNC(=O)c2ccccn2)cc1OC | inconclusive [inhibitor, single point] |
| O=C(/C=C/c1cccs1)Nc1sc2c(c1C(=O)O)CCCC2 | inactive |
| Cc1cc(C)cc(NC(=O)CSc2nnc(-c3ccc(S(=O)(=O)N4CCCC4)cc3)o2)c1 | inconclusive [inhibitor, single point] |
| CCCOc1ccc(N2C(=O)CC(N3CC=C(c4ccccc4)CC3)C2=O)cc1 (centres undefined) | inactive |
| CCN(CCCNC(=O)Cn1ncc2c([nH]c3ccccc32)c1=O)Cc1ccccc1 | inconclusive [inhibitor, partial curve, poor fit] |
| O=C(N/N=C(\Cc1ncc[nH]1)c1ccccc1)c1cccnc1 | active: 9.28 µM |
| COCC(=O)N1CCCC(C(=O)c2ccc3c4c(cccc24)CC3)C1 (centres undefined) | inconclusive [inhibitor, single point] |
| O=S(=O)(NCc1ccccc1F)c1cccc(S(=O)(=O)N2CCOCC2)c1 | active: 8.28 µM |
| c1ccc2c(NCCc3c[nH]c4ccccc34)c3ccccc3nc2c1 | active: 0.586 µM |
| COC(=O)c1cccc(NC(=O)c2ccc3c(c2)C(=O)N(Cc2cccnc2)C3=O)c1C | inactive |
| CC(=O)Nc1ccc(NC(=O)CCCCCn2nnc3ccccc3c2=O)cc1 | inactive |
| CCCOCn1cc(F)c(=O)[nH]c1=O | inconclusive [inhibitor, full curve, poor fit] |
| CC(C)(C)OC(=O)CN1C(=O)S/C(=C\c2ccc(-c3cccc(C(=O)O)c3)o2)C1=O | inactive |
| COc1ccc(CCC(C(O)C(F)(F)F)S(=O)c2ccccc2)cc1 (centres undefined) | inconclusive [inhibitor, partial curve, poor fit] |
| Cc1ccc(-c2csc3ncnc(-n4nnc5ccccc54)c23)cc1C | inconclusive [inhibitor, partial curve, poor fit] |
| CC(=O)Nc1cc2c3c(c1)CCC(=O)N3CCC2 | inactive |
| Cc1cccn2c(=O)c3cc(C(=O)NC4CCCC4)c(=N)n(CC4CCCO4)c3nc12 (centres undefined) | inconclusive [inhibitor, full curve] |
| COc1ccc(CC(=O)Nc2ccc(N3CCCC3)c(C)c2)cc1 | inconclusive [inhibitor, partial curve, poor fit] |
